# The list shows a part of the results.
# Columns and labels:
# Assay in all cases: glycan array binding signal (z-score within array); higher = stronger binding
# Conditions in all cases: glycan notation: IUPAC condensed, linker removed
# [1] = biological target: Fuc(a1-2)[Gal(a1-3)]Gal(b1-4)GlcNAc(b1-2)Man(a1-3)[Fuc(a1-2)[Gal(a1-3)]Gal(b1-4)GlcNAc(b1-2)Man(a1-6)]Man(b1-4)GlcNAc(b1-4)[Fuc(a1-6)]GlcNAc
# Summary of the method: (§1)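 Arrays were curated from the Consortium for Functional Glycomics database, 3228 in total, and kept only where the protein sequence was available. Binding is expressed as a within-array Z-score. This score was averaged across arrays of the same protein sequence at different concentrations or buffers and across linkers, and negative values can be read as non-binding.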
# [2] = biological target: Fuc(a1-2)[Gal(a1-3)]Gal(b1-4)GlcNAc(b1-3)GalNAc
# Summary of the method: as §1
# [3] = biological target: Fuc(a1-2)[Gal(a1-3)]Gal(b1-4)GlcNAc(b1-3)[Fuc(a1-2)[Gal(a1-3)]Gal(b1-4)GlcNAc(b1-6)]GalNAc
# Summary of the method: as §1
# [4] = biological target: Fuc(a1-2)[Gal(a1-3)]Gal(b1-4)GlcNAc(b1-6)GalNAc
# Summary of the method: as §1
# [5] = biological target: Fuc(a1-2)[Gal(a1-3)]Gal(b1-4)[Fuc(a1-3)]Glc
# Summary of the method: as §1
# [6] = biological target: Fuc(a1-2)[Gal(a1-3)]Gal(b1-4)[Fuc(a1-3)]GlcNAc
# Summary of the method: as §1
# [7] = biological target: Fuc(a1-2)[Gal(a1-3)]Gal(b1-4)[Fuc(a1-3)]GlcNAc(b1-3)GalNAc
# Summary of the method: as §1
# [8] = biological target: Fuc(a1-2)[Gal(a1-4)]Gal(b1-4)GlcNAc
# Summary of the method: as §1
# [9] = biological target: Fuc(a1-2)[GalNAc(a1-3)]Gal
# Summary of the method: as §1
# [10] = biological target: Fuc(a1-2)[GalNAc(a1-3)]Gal(b1-3)GalNAc(a1-3)[Fuc(a1-2)]Gal(b1-4)GlcNAc
# Summary of the method: as §1
# [11] = biological target: Fuc(a1-2)[GalNAc(a1-3)]Gal(b1-3)GalNAc(b1-3)Gal(a1-4)Gal(b1-4)Glc
# Summary of the method: as §1
# [12] = biological target: Fuc(a1-2)[GalNAc(a1-3)]Gal(b1-3)GlcNAc
# Summary of the method: as §1
# [13] = biological target: Fuc(a1-2)[GalNAc(a1-3)]Gal(b1-3)GlcNAc(b1-2)Man(a1-3)[Fuc(a1-2)[GalNAc(a1-3)]Gal(b1-3)GlcNAc(b1-2)Man(a1-6)]Man(b1-4)GlcNAc(b1-4)GlcNAc
# Summary of the method: as §1
# [14] = biological target: Fuc(a1-2)[GalNAc(a1-3)]Gal(b1-3)GlcNAc(b1-2)Man(a1-3)[Fuc(a1-2)[GalNAc(a1-3)]Gal(b1-3)GlcNAc(b1-2)Man(a1-6)]Man(b1-4)GlcNAc(b1-4)[Fuc(a1-6)]GlcNAc
# Summary of the method: as §1
# [15] = biological target: Fuc(a1-2)[GalNAc(a1-3)]Gal(b1-3)GlcNAc(b1-3)GalNAc
# Summary of the method: as §1
# [16] = biological target: Fuc(a1-2)[GalNAc(a1-3)]Gal(b1-3)GlcNAc(b1-6)GalNAc
# Summary of the method: as §1
# [17] = biological target: Fuc(a1-2)[GalNAc(a1-3)]Gal(b1-4)Glc
# Summary of the method: as §1
# [18] = biological target: Fuc(a1-2)[GalNAc(a1-3)]Gal(b1-4)GlcNAc
# Summary of the method: as §1
# [19] = biological target: Fuc(a1-2)[GalNAc(a1-3)]Gal(b1-4)GlcNAc(b1-2)Man
# Summary of the method: as §1
# [20] = biological target: Fuc(a1-2)[GalNAc(a1-3)]Gal(b1-4)GlcNAc(b1-2)Man(a1-3)[Fuc(a1-2)[GalNAc(a1-3)]Gal(b1-4)GlcNAc(b1-2)Man(a1-6)]Man(b1-4)GlcNAc(b1-4)GlcNAc
# Summary of the method: as §1
# [21] = biological target: Fuc(a1-2)[GalNAc(a1-3)]Gal(b1-4)GlcNAc(b1-2)Man(a1-3)[Fuc(a1-2)[GalNAc(a1-3)]Gal(b1-4)GlcNAc(b1-2)Man(a1-6)]Man(b1-4)GlcNAc(b1-4)[Fuc(a1-6)]GlcNAc
# Summary of the method: as §1
# [22] = biological target: Fuc(a1-2)[GalNAc(a1-3)]Gal(b1-4)GlcNAc(b1-3)Gal(b1-4)GlcNAc
# Summary of the method: as §1
# [23] = biological target: Fuc(a1-2)[GalNAc(a1-3)]Gal(b1-4)GlcNAc(b1-3)Gal(b1-4)GlcNAc(b1-3)Gal(b1-4)GlcNAc
# Summary of the method: as §1
# [24] = biological target: Fuc(a1-2)[GalNAc(a1-3)]Gal(b1-4)GlcNAc(b1-3)GalNAc
# Summary of the method: as §1
# [25] = biological target: Fuc(a1-2)[GalNAc(a1-3)]Gal(b1-4)GlcNAc(b1-3)[Fuc(a1-2)[GalNAc(a1-3)]Gal(b1-4)GlcNAc(b1-6)]GalNAc
# Summary of the method: as §1
# [26] = biological target: Fuc(a1-2)[GalNAc(a1-3)]Gal(b1-4)GlcNAc(b1-6)GalNAc
# Summary of the method: as §1
# [27] = biological target: Fuc(a1-2)[GalNAc(a1-3)]Gal(b1-4)[Fuc(a1-3)]GlcNAc
# Summary of the method: as §1
# [28] = biological target: Fuc(a1-2)[GalNAc(a1-3)]Gal(b1-4)[Fuc(a1-3)]GlcNAc(b1-3)GalNAc
# Summary of the method: as §1
# [29] = biological target: Fuc(a1-2)[GalNAc(a1-4)]Gal(b1-4)GlcNAc
# Summary of the method: as §1
# [30] = biological target: Fuc(a1-2)[GalNAc(b1-3)]Gal
# Summary of the method: as §1
# Fuc(a1-3)GlcNAc = biological target: Fuc(a1-3)GlcNAc
# Summary of the method: as §1
# [31] = biological target: Fuc(a1-3)[Gal(b1-4)]Glc6S
# Summary of the method: as §1
# [32] = biological target: Fuc(a1-3)[Gal(b1-4)]GlcNAc
# Summary of the method: as §1
# [33] = biological target: Fuc(a1-3)[Gal(b1-4)]GlcNAc(b1-2)Man
# Summary of the method: as §1
# [34] = biological target: Fuc(a1-3)[Gal(b1-4)]GlcNAc(b1-2)Man(a1-3)[Fuc(a1-3)[Gal(b1-4)]GlcNAc(b1-2)Man(a1-6)]Man(b1-4)GlcNAc(b1-4)GlcNAc
# Summary of the method: as §1
# [35] = biological target: Fuc(a1-3)[Gal(b1-4)]GlcNAc(b1-2)Man(a1-3)[Fuc(a1-3)[Gal(b1-4)]GlcNAc(b1-2)Man(a1-6)]Man(b1-4)GlcNAc(b1-4)[Fuc(a1-6)]GlcNAc
# Summary of the method: as §1
# [36] = biological target: Fuc(a1-3)[Gal(b1-4)]GlcNAc(b1-3)Gal(b1-3)[Fuc(a1-4)]GlcNAc
# Summary of the method: as §1
binder,measurement,setting,value
PX9961H-bth-557-24-557 (Bacteroides thetaiotaomicron) (protein) EETRTEVEKKNYMNNAEEAKDVLLGVYRTNTLDAMYGYYLSILFNLGTDISQVEGSGNENFRIIPTNSFPTTQSEVQQTWAALYTGIYRANDFLERISNKIGSYTTTDKKLATLYIAEARALRGMFYFELVRRFGNVVLMTSTQMSNQNPATYVQSAPEKVYEYIEDDLLYACDILPYATDDQYRESNDYRFSKGAALGLLTKVYATWAGYPVKDESKWEAAAKTARILVESGKHGLLKDYEQLWKNTCNGTWDPTESLIEISFYSPTVSGNSDPVGRIGKWNGVKTTAIAGVRGSCAANVKVVHTFVLDWREDVSDIRRDLSIANYQYTDTKKSLWVAGASDTDESAAEKDADPTKAQKNKQNYTPAKWDIQKYVTTNSFINNDKSNVNWYFLRYADVLLLYAEALNEWKHGPDAEAYNAINAVRRRGYGNPSNTSACDLPQGLDETSFREAVRKERSYELSFEGHRRQDLIRWGIYYKTVQATAKELGYWWEGTGSPNYSVATYTEEGKHELFPIPQRDMDLCIQFNQNPKW,glycan array binding signal (z-score),[1],0.043
same,glycan array binding signal (z-score),[2],0.576
same,glycan array binding signal (z-score),[3],-0.28
same,glycan array binding signal (z-score),[4],-0.29
same,glycan array binding signal (z-score),[5],-0.287
same,glycan array binding signal (z-score),[6],-0.18
same,glycan array binding signal (z-score),[7],-0.074
same,glycan array binding signal (z-score),[8],0.377
same,glycan array binding signal (z-score),[9],-0.417
same,glycan array binding signal (z-score),[10],-0.274
same,glycan array binding signal (z-score),[11],-0.41
same,glycan array binding signal (z-score),[12],-0.405
same,glycan array binding signal (z-score),[13],0.927
same,glycan array binding signal (z-score),[14],-0.407
same,glycan array binding signal (z-score),[15],-0.349
same,glycan array binding signal (z-score),[16],0.217
same,glycan array binding signal (z-score),[17],-0.47
same,glycan array binding signal (z-score),[18],-0.488
same,glycan array binding signal (z-score),[19],-0.435
same,glycan array binding signal (z-score),[20],3.08
same,glycan array binding signal (z-score),[21],-0.289
same,glycan array binding signal (z-score),[22],-0.215
same,glycan array binding signal (z-score),[23],-0.119
same,glycan array binding signal (z-score),[24],-0.417
same,glycan array binding signal (z-score),[25],-0.333
same,glycan array binding signal (z-score),[26],1.81
same,glycan array binding signal (z-score),[27],-0.321
same,glycan array binding signal (z-score),[28],2.15
same,glycan array binding signal (z-score),[29],0.042
same,glycan array binding signal (z-score),[30],0.036
same,glycan array binding signal (z-score),Fuc(a1-3)GlcNAc,-0.19
same,glycan array binding signal (z-score),[31],-0.154
same,glycan array binding signal (z-score),[32],-0.342
same,glycan array binding signal (z-score),[33],-0.167
same,glycan array binding signal (z-score),[34],0.247
same,glycan array binding signal (z-score),[35],0.019
same,glycan array binding signal (z-score),[36],-0.482

# Source: the supplement of paper PMC8728848
